Measurements published in paper PMC8262918.
Results are given in words; binding and its absence hold for the method and conditions named. In cells and extracts the contact can be indirect. Some entries that bind do so weakly or less than the wild type. Tags and fused reporters may be left off the sequences shown.

Protein sequences, listed by entry. Tags and fused reporters are not part of them.
UniProt Q8IUC6: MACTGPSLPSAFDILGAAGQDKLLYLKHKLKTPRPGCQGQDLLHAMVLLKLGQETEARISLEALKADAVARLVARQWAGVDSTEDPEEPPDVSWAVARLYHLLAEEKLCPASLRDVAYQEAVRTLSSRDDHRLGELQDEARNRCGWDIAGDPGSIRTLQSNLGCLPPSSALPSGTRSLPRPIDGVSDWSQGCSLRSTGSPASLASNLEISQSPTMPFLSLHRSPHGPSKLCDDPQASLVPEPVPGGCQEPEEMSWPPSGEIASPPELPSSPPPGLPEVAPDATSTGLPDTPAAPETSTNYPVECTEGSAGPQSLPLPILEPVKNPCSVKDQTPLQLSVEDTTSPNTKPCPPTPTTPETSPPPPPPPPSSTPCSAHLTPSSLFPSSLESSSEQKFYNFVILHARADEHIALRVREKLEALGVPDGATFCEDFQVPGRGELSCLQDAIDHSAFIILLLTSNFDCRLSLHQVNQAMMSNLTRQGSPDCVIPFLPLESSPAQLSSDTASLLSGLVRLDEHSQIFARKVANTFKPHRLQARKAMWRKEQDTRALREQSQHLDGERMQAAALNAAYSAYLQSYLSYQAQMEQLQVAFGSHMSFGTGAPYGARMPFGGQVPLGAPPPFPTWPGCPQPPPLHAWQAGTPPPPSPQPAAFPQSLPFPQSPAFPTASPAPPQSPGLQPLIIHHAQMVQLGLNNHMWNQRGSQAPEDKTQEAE

T1: Flag-tagged DDX21 127–784 (human) (UniProt Q9NR30)
T1 sequence: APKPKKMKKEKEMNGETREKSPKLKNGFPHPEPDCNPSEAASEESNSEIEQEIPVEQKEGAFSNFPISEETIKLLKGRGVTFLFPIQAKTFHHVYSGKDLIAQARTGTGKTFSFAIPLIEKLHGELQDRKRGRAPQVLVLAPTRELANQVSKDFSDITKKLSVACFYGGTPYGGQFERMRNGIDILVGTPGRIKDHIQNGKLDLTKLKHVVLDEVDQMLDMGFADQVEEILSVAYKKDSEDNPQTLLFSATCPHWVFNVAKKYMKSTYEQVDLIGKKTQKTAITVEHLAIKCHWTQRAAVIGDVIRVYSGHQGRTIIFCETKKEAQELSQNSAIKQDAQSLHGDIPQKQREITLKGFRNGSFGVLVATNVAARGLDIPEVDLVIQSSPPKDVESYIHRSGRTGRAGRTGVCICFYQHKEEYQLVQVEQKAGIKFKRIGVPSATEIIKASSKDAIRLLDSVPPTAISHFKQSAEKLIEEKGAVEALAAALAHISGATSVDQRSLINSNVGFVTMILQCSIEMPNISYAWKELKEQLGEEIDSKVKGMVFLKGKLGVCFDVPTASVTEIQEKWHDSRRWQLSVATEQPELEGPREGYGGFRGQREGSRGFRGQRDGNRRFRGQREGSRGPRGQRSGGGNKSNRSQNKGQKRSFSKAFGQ

T2: Flag-tagged DDX21 D126A (human) (UniProt Q9NR30)
T2 sequence: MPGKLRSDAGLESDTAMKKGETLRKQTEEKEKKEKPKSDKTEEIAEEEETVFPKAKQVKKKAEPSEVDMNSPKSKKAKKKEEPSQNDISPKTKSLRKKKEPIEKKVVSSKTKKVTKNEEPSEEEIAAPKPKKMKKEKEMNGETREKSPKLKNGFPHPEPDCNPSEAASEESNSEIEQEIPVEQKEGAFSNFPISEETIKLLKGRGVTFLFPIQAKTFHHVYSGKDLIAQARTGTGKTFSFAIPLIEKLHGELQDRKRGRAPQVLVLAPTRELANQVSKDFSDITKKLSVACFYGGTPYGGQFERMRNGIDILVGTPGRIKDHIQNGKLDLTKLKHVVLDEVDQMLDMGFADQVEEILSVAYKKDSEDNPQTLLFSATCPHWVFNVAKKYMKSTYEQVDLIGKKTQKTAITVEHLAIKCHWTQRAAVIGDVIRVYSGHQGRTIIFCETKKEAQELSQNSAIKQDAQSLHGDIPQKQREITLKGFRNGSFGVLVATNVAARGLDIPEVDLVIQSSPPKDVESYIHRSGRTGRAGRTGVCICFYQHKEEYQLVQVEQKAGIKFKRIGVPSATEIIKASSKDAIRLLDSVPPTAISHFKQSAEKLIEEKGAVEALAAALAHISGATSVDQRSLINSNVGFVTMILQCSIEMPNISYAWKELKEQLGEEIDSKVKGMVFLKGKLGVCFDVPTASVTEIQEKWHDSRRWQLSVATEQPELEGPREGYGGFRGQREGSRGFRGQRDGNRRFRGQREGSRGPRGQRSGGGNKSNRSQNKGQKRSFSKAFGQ

T3: Flag-tagged DDX21 1–125 (human) (UniProt Q9NR30)
T3 sequence: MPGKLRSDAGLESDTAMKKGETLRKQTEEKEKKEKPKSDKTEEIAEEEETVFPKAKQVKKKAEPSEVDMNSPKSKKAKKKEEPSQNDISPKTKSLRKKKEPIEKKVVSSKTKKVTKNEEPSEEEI

T4: Flag-tagged DDX21-X1 (wild type, full length) (human) (UniProt Q9NR30)
T4 sequence: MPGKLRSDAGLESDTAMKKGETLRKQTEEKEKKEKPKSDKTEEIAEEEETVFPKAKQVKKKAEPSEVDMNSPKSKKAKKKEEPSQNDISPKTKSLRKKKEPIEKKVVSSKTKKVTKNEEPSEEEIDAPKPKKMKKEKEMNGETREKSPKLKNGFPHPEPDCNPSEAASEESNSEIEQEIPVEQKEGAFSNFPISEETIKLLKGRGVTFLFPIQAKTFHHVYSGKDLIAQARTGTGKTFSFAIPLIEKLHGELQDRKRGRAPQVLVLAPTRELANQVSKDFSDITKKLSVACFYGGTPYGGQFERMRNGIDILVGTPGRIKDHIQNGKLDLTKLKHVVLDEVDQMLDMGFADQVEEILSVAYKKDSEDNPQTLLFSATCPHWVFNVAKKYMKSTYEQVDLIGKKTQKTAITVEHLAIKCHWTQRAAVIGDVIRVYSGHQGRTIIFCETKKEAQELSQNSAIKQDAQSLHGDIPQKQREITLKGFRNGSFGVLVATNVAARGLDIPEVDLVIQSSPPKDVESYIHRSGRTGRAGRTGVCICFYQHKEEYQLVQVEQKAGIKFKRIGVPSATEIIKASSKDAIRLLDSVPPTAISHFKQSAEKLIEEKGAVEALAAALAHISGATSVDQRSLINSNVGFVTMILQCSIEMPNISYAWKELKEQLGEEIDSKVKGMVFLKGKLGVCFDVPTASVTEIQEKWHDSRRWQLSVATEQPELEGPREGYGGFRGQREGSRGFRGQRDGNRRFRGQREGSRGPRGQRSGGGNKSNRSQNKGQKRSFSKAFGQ


Columns and labels:
Test in all cases: co-IP; HeLa cells cotransfected (24 or 36 h); lysis buffer 150 mM NaCl, 50 mM Tris-HCl pH 8.0, 5 mM EDTA, 0.5% NP-40; precipitated with anti-Flag antibody and protein G agarose overnight at 4°C; four washes with lysis buffer; immunoblot of the tagged prey
[1] = target: T1, Flag-tagged DDX21 127–784 (human)
[2] = target: T2, Flag-tagged DDX21 D126A (human)
[3] = target: T3, Flag-tagged DDX21 1–125 (human)
[4] = target: T4, Flag-tagged DDX21-X1 (wild type, full length) (human)

binding [1] | binding [2] | binding [3] | binding [4] | Molecule
binds weakly | binds | – | – | HA-tagged TRIF (from UniProt Q8IUC6 1-712)
binds weakly | binds | – | – | HA-tagged DDX1 (protein, UniProt Q92499 1-740) MAAFSEMGVMPEIAQAVEEMDWLLPTDIQAESIPLILGGGDVLMAAETGSGKTGAFSIPVIQIVYETLKDQQEGKKGKTTIKTGASVLNKWQMNPYDRGSAFAIGSDGLCCQSREVKEWHGCRATKGLMKGKHYYEVSCHDQGLCRVGWSTMQASLDLGTDKFGFGFGGTGKKSHNKQFDNYGEEFTMHDTIGCYLDIDKGHVKFSKNGKDLGLAFEIPPHMKNQALFPACVLKNAELKFNFGEEEFKFPPKDGFVALSKAPDGYIVKSQHSGNAQVTQTKFLPNAPKALIVEPSRELAEQTLNNIKQFKKYIDNPKLRELLIIGGVAARDQLSVLENGVDIVVGTPGRLDDLVSTGKLNLSQVRFLVLDEADGLLSQGYSDFINRMHNQIPQVTSDGKRLQVIVCSATLHSFDVKKLSEKIMHFPTWVDLKGEDSVPDTVHHVVVPVNPKTDRLWERLGKSHIRTDDVHAKDNTRPGANSPEMWSEAIKILKGEYAVRAIKEHKMDQAIIFCRTKIDCDNLEQYFIQQGGGPDKKGHQFSCVCLHGDRKPHERKQNLERFKKGDVRFLICTDVAARGIDIHGVPYVINVTLPDEKQNYVHRIGRVGRAERMGLAISLVATEKEKVWYHVCSSRGKGCYNTRLKEDGGCTIWYNEMQLLSEIEEHLNCTISQVEPDIKVPVDEFDGKVTYGQKRAAGGGSYKGHVDILAPTVQELAALEKEAQTSFLHLGYLPNQLFRTF
binds | – | no binding | binds | HA-tagged WT DDX21 (protein, UniProt Q9NR30-1 1-783) MPGKLRSDAGLESDTAMKKGETLRKQTEEKEKKEKPKSDKTEEIAEEEETVFPKAKQVKKKAEPSEVDMNSPKSKKAKKKEEPSQNDISPKTKSLRKKKEPIEKKVVSSKTKKVTKNEEPSEEEIDAPKPKKMKKEKEMNGETREKSPKLKNGFPHPEPDCNPSEAASEESNSEIEQEIPVEQKEGAFSNFPISEETIKLLKGRGVTFLFPIQAKTFHHVYSGKDLIAQARTGTGKTFSFAIPLIEKLHGELQDRKRGRAPQVLVLAPTRELANQVSKDFSDITKKLSVACFYGGTPYGGQFERMRNGIDILVGTPGRIKDHIQNGKLDLTKLKHVVLDEVDQMLDMGFADQVEEILSVAYKKDSEDNPQTLLFSATCPHWVFNVAKKYMKSTYEQVDLIGKKTQKTAITVEHLAIKCHWTQRAAVIGDVIRVYSGHQGRTIIFCETKKEAQELSQNSAIKQDAQSLHGDIPQKQREITLKGFRNGSFGVLVATNVAARGLDIPEVDLVIQSSPPKDVESYIHRSGRTGRAGRTGVCICFYQHKEEYQLVQVEQKAGIKFKRIGVPSATEIIKASSKDAIRLLDSVPPTAISHFKQSAEKLIEEKGAVEALAAALAHISGATSVDQRSLINSNVGFVTMILQCSIEMPNISYAWKELKEQLGEEIDSKVKGMVFLKGKLGVCFDVPTASVTEIQEKWHDSRRWQLSVATEQPELEGPREGYGGFRGQREGSRGFRGQRDGNRRFRGQREGSRGPRGQRSGGGNKSNRSQNKGQKRSFSKAFGQ
no binding | – | no binding | no binding | HA-tagged DDX21 1–125 (domain or fragment, UniProt Q9NR30-1 1-125) MPGKLRSDAGLESDTAMKKGETLRKQTEEKEKKEKPKSDKTEEIAEEEETVFPKAKQVKKKAEPSEVDMNSPKSKKAKKKEEPSQNDISPKTKSLRKKKEPIEKKVVSSKTKKVTKNEEPSEEEI
binds | – | no binding | binds | HA-tagged DDX21 127–784 (domain or fragment, UniProt Q9NR30-1 127-783) APKPKKMKKEKEMNGETREKSPKLKNGFPHPEPDCNPSEAASEESNSEIEQEIPVEQKEGAFSNFPISEETIKLLKGRGVTFLFPIQAKTFHHVYSGKDLIAQARTGTGKTFSFAIPLIEKLHGELQDRKRGRAPQVLVLAPTRELANQVSKDFSDITKKLSVACFYGGTPYGGQFERMRNGIDILVGTPGRIKDHIQNGKLDLTKLKHVVLDEVDQMLDMGFADQVEEILSVAYKKDSEDNPQTLLFSATCPHWVFNVAKKYMKSTYEQVDLIGKKTQKTAITVEHLAIKCHWTQRAAVIGDVIRVYSGHQGRTIIFCETKKEAQELSQNSAIKQDAQSLHGDIPQKQREITLKGFRNGSFGVLVATNVAARGLDIPEVDLVIQSSPPKDVESYIHRSGRTGRAGRTGVCICFYQHKEEYQLVQVEQKAGIKFKRIGVPSATEIIKASSKDAIRLLDSVPPTAISHFKQSAEKLIEEKGAVEALAAALAHISGATSVDQRSLINSNVGFVTMILQCSIEMPNISYAWKELKEQLGEEIDSKVKGMVFLKGKLGVCFDVPTASVTEIQEKWHDSRRWQLSVATEQPELEGPREGYGGFRGQREGSRGFRGQRDGNRRFRGQREGSRGPRGQRSGGGNKSNRSQNKGQKRSFSKAFGQ
